Consider 84 compounds from PubChem BioAssay (NCI).

“And” between values parts separate entries of the source, which are not always exact repeats. Equal values may be shown once.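 1) Cells in 96-well plates. 2) Compound, 48 h, 5 concentrations. 3) Linear interpolation between surrounding doses. 4) Unreached endpoint = highest concentration. Here, GI50 denotes the concentration required for 50% inhibition of growth. TGI denotes the concentration required for complete inhibition of growth.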

The experiment has as its system NCI-H322M lung. Description: NCI tumour cell line growth inhibition, 48 h.
`C[C@]12CC[C@@H]3c4cc(OCC(F)(F)F)c(O)cc4CC[C@H]3[C@@H]1CC[C@@H]2O` came in with a TGI of 14.1 µM.

In turn, `O=C1CCCN1C(=O)CS(=O)(=O)c1ccccc1` returned a TGI of more than 100 µM.

In turn, `CC#CCC1CCC(OCC)=CC1=O` (centres undefined) displayed a TGI of more than 100 µM.

In turn, `CCOC(=O)/C(C=Nc1c(C)n(C)n(-c2ccccc2)c1=O)=C(/C)O` gave a TGI of more than 100 µM.

For the compound `O=C1CCC(N2Cc3cc(CNC(=O)C(F)(F)c4ccc(Cl)cc4)ccc3C2=O)C(=O)N1` (centres undefined), the GI50 is 3.26 µM and the TGI was more than 100 µM.

As to `O=C(O)c1cc2c(ncc3c(=O)n(-c4ccccc4)[nH]c32)s1`, the TGI is more than 100 µM.

Regarding `O=S(=O)(c1ccc(Cl)cc1)C(Cl)(Cl)Cl`, the GI50 was 14.7 µM and the TGI worked out at 58.4 µM.

Consider `COc1cc(N2C(=O)[C@H](O)C2c2ccc(SC)cc2)cc(OC)c1OC` (some centres undefined), for which the GI50 is 0.058 µM and the TGI was more than 100 µM.

`COC(=O)[C@@H]1CC(C(C[N+](=O)[O-])c2ccc(O[Si](C)(C)C(C)(C)C)cc2)C(=O)N1C(=O)OC(C)(C)C` (some centres undefined): the TGI was more than 100 µM.

As to `CN1C(=O)N(C)C2C1NN=c1s/c(=C\c3ccc(C(F)(F)F)cc3)c(=O)n12` (centres undefined), the GI50 was 6.37 µM and the TGI was more than 100 µM.

`OCc1ccc(N2CCCC2c2ccccc2)cc1Cl` (centres undefined): the GI50 was 3.11 µM and the TGI was determined as 15.6 µM.

As for `O=C(O)CN1CCN(CC(=O)O)CC(=O)[O][Hg][O]C(=O)C1`, the GI50 was more than 75.3 µM and the TGI was more than 100 µM.

`COc1cc2c(c(OC)c1OC)-c1ccc(SC)c(=O)cc1C(NC(=O)c1ccccc1)CC2` (centres undefined) had a TGI of 2.3 µM.

For the compound `O=c1[nH]cc(-c2c[nH]c3ccccc23)nc1-c1c[nH]c2ccccc12`, the TGI turned out to be 28.9 µM.

`CC(=O)C(CN(CC(C)C)CC(C)C)C(c1ccccc1)c1c(O)c2ccccc2oc1=O` (centres undefined) displayed a TGI of more than 100 µM.

Consider `COc1cc2c3c(n(C)c(=O)c2cc1OC)-c1cc2c(cc1/C3=C\CCCCN1C(=O)c3ccccc3C1=O)OCO2`, for which the GI50 is 19.9 µM and the TGI is 87.1 µM.

`COc1cc(/C=C/c2nc(NC(=S)Nc3ccccc3)nnc2C)cc(OC)c1OC` gave a TGI of more than 100 µM.

The compound `CCCCCCCOc1ccc(/C=C\c2cc[n+](CCCCCCCC[n+]3ccc(/C=C\c4ccc(OCCCCCCC)cc4)cc3)cc2)cc1` showed a TGI of 31.6 µM.

Compound `COc1ccccc1-c1cc(=O)c2cc(C)cnc2[nH]1` registered a TGI of more than 100 µM.

Turning to `O=C(/C=C/c1ccccc1)CCN1CCOCC1`, the TGI came to 50.4 µM.

For the compound `COc1ccc(CC2(O)C3CC4CCC2C4C3)cc1` (centres undefined), the TGI was more than 100 µM.

For `CC(C)NCCCn1c(Sc2cc3c(cc2I)OCO3)nc2c(N)ncnc21`, the GI50 was 0.171 µM.

`Cc1[nH]c2ccccc2c1C(=O)CC1(O)C(=O)Nc2c(Cl)cc(Cl)cc21` (centres undefined) showed a TGI of more than 100 µM.

Take `CC(=O)OC12C=C(C)C(C(C)C1)C1C(=O)N(CCN3CCOCC3)C(=O)C12` (centres undefined): the GI50 is more than 100 µM and the TGI was more than 100 µM.

Compound `O=C(O)c1ccc(C2COc3ccc(Cl)cc3C2)cc1` (centres undefined) gave a TGI of more than 100 µM.

With `CS(=O)(=O)c1ccc(-c2cc(-c3ccc(S(C)(=O)=O)cc3)[n+](-c3cc(-c4ccc(S(C)(=O)=O)cc4)c([O-])c(-c4ccc(S(C)(=O)=O)cc4)c3)c(-c3ccc(S(C)(=O)=O)cc3)c2)cc1`, the TGI is more than 100 µM.

As for `C[N+](C)(C)CCc1ccccc1`, the TGI is more than 100 µM.

`CC(=O)c1ccc2c(c1)CC1(C2)Cc2cc3c(cc2C1=O)CCC3` (centres undefined) displayed a TGI of more than 100 µM.

As to `O=C(NC1=C(Cl)C(=O)c2ccccc2C1=O)c1ccc(F)cc1`, the TGI was 27.8 µM.

For `O=c1[nH]c(=O)n(C2CC(O)C(COP(=O)(OCc3ccc([N+](=O)[O-])o3)N(CCCCCl)CC(O)CO)O2)cc1F` (centres undefined), the GI50 is 2.03 µM and the TGI was more than 100 µM.

Compound `CC1=NC(=Cc2cccc(Cl)c2)C(=O)N1n1c(-c2ccccc2)nc2ccccc2c1=O` yielded a TGI of 94.3 µM.

Regarding `CCCCCCCCCCCCCCCCCC[n+]1ccc2c(C)c3c(c(C)c2c1)c1cc(O)ccc1n3CC`, the GI50 was 3.58 µM and the TGI was determined as 19.7 µM.

For the compound `CCC(=O)C12OC3OC(C)(C)OC3C1OC(C)(C)O2` (centres undefined), the TGI is more than 100 µM.

In the case of `COc1cccc(NC(=O)CSc2nnc(-c3ccc(NC(C)=O)cc3)o2)c1`, the TGI was more than 100 µM.

With `CO/C(=N\N=C\c1ccc(OC)c(OC)c1)c1ccncc1`, the TGI was more than 10 µM.

For `CN1c2ccccc2C(=O)NC12CCN(CCCC(=O)c1ccc(F)cc1)CC2`, the TGI was more than 100 µM.

On to `COc1ccc(-c2[nH]c3ccccc3c2-c2ccc(OC)cc2)cc1`, for which the GI50 was 13.2 µM and the TGI amounted to 40.3 µM.

On to `OCC12C3C4C5C3C1C5C42` (centres undefined), for which the TGI was more than 100 µM.

On to `CCC(CCCN)Nc1cc(OC)cc2c(C)ccnc12` (centres undefined), for which the TGI was 28.2 µM.

`CCOC(=O)c1c(C)nc2c1c(CN(C)C)c(O)c1[nH]c(C)c(C)nc12` came in with a TGI of more than 100 µM.

Compound `O=C(NC1CCCCC1)NS(=O)(=O)c1ccc2c(c1)CCC2` had a TGI of more than 100 µM.

For the compound `O=C(c1ccccc1)c1ccc2nc(-c3c(Cl)c(Cl)c(Cl)c(Cl)c3C(=O)N/N=C/c3ccc(Cl)cc3)[nH]c2c1`, the TGI was more than 100 µM.

For the compound `CCOC(=O)C1=NOC2(C=C(Br)C(=O)C(Br)=C2)C1`, the TGI came to 30.1 µM.

For the compound `O=C(NC1CCCCC1NC(c1ccccc1)(c1ccccc1)c1ccccc1)C(=O)NC1CCCCC1NC(c1ccccc1)(c1ccccc1)c1ccccc1` (centres undefined), the TGI is more than 100 µM.

Compound `C/C(=N\Nc1ccc([N+](=O)[O-])cc1[N+](=O)[O-])c1sc(-n2nc(-c3ccccc3)cc2-c2ccccc2)nc1C` returned a TGI of more than 100 µM.

The compound `CCC1(c2ccccc2)C(=O)N=C(c2ccccc2)N1CCc1ccccc1` (centres undefined) displayed a TGI of more than 100 µM.

As to `CC1(C)OC(=O)C(C#N)=C1/C=C/c1coc2ccc(Cl)cc2c1=O`, the TGI is more than 100 µM.

The compound `O=[N+]([O-])c1cccc2nnccc12` came in with a TGI of more than 100 µM.

For `Cc1ccc(/C=N\NC(=O)c2[nH]c3ccc(F)cc3c2-c2ccccc2)cc1`, the GI50 was 0.053 µM and the TGI is more than 51.8 µM.

For `Oc1ccc(-c2cc(-c3cc(-c4ccc(O)cc4)no3)on2)cc1`, the TGI is more than 100 µM.

Consider `O=[N+]([O-])c1nccn1CCCNc1ccnc2cc(Cl)ccc12`, for which the TGI was more than 100 µM.

As for `CCCCn1c(N)c(-c2nc3ccccc3o2)sc1=S`, the TGI is 77.5 µM.

With `Cc1ccccc1-n1c(=O)c2ncn(C3CCCO3)c2n(-c2ccccc2C)c1=S` (centres undefined), the TGI was more than 100 µM.

Consider `COc1cc2nc(N3CCCC3)nc(NCCc3ccccc3)c2cc1OC`, for which the GI50 was 2.21 µM and the TGI worked out at 5.54 µM.

`CCCP1(=O)C=C(C)C(=C(Cl)Cl)C(C)=C1` (centres undefined) came in with a TGI of more than 100 µM.

As for `O=C1OC(=O)C(=C\c2ccc3c(c2)OCO3)/C1=C/c1ccc2c(c1)OCO2`, the TGI was more than 100 µM.

For `Cc1ccc(/C=C/C(=O)C(C)(C)CN2CCCCC2)cc1`, the TGI came to 17.8 µM.

Regarding `Cn1c(=O)c2c(nc3n2CC(=O)N3CCCCl)n(C)c1=O`, the TGI is more than 100 µM.

`COc1ccc(C=O)c([N+](=O)[O-])c1` yielded a TGI of more than 100 µM.

Compound `COc1nc(=O)n(COC(CO)CN2C(=O)c3ccccc3C2=O)cc1Cc1cccc(OCc2ccccc2)c1` (centres undefined) had a TGI of 77.7 µM.

`CN(N=O)C(=O)ON1C(=O)CCC1=O` showed a TGI of more than 100 µM.

Turning to `O=C(NNCC(O)COc1ccccc1)c1ccccc1` (centres undefined), the TGI was more than 100 µM.

On to `CC(=O)Nc1ccc(C(O)/C(=N/N)c2nc3ccc(Cl)cc3[nH]c2=O)cc1` (centres undefined), for which the TGI is more than 100 µM.

In turn, `Cc1cccc(C)c1NC(=O)/C(=N/NC(N)=S)C(C)C(=O)c1ccc(Cl)cc1` (centres undefined) gave a TGI of more than 100 µM.

Compound `c1ccc2c(c1)C1CCCCCC21N1CCOCC1` (centres undefined) showed a TGI of more than 100 µM.

For `Clc1ccc(Nc2nc3ccccc3nc2-c2cccs2)cc1Cl`, the TGI was more than 100 µM.

Compound `Cc1ccc2c(C3Cc4ccccc4N3C(=O)/C=C\C(=O)O)c(C)[nH]c2c1` (centres undefined) came in with a TGI of more than 100 µM.

`CC(C)(C)c1cc2c(OC/C=C/c3ccccc3)c(c1)Cc1cc(C(C#N)(OC/C=C/c3ccccc3)OC/C=C/c3ccccc3)cc(c1OC/C=C\c1ccccc1)Cc1cc(C(C)(C)C)cc(c1OC/C=C/c1ccccc1)Cc1cc(C(C#N)(OC/C=C\c3ccccc3)OC/C=C/c3ccccc3)cc(c1OC/C=C\c1ccccc1)C2` (centres undefined) registered a TGI of more than 100 µM.

For `CCCc1c(-c2ccccc2)[nH]c2ccccc2c1=O`, the TGI is more than 100 µM.

Regarding `O=C(/C=C\c1cccc([N+](=O)[O-])c1)/C=C/c1cccc([N+](=O)[O-])c1`, the GI50 was more than 100 µM and the TGI is more than 100 µM.

Turning to `C1CCC([PH+](C2CCCCC2)C2CCCCC2[PH+](C2CCCCC2)C2CCCCC2)CC1.[Au].[CH-]1CCCCC1CC1CCCC[N-]1` (centres undefined), the GI50 is 0.364 µM and the TGI worked out at 1.38 µM.

Regarding `CO/N=C(/C)c1ccc(NC(=O)CSc2nnc(-c3ccncc3)n2-c2ccccc2)cc1`, the GI50 was more than 100 µM and the TGI is more than 100 µM.

`CC(=O)CN(Cc1cc(C)c2c(c1)c1ccccc1n2Cc1ccccc1)S(=O)(=O)c1ccc(C)cc1` gave a TGI of more than 100 µM.

As for `CC/C=C\C/C=C\C/C=C\CCCCCCCC(=O)OCC(O)CO` (centres undefined), the TGI is more than 97.1 µM.

In turn, `C=CC1(NC(=O)c2ccccc2)CCC(C(C)(C)C)CC1` (centres undefined) gave a TGI of more than 100 µM.

Consider `CC1=C2[C@@H](CC1)[C@]1(C)O[C@@](c3ccccc3)(C[C@H]1OC(=O)CO)[C@H]2OC(=O)/C=C/c1ccccc1`, for which the GI50 is 19.5 µM and the TGI stood at 50.1 µM.

`CC(=O)NC(CCCNC(=O)N(CCCl)N=O)C(=O)NCc1ccccc1` (centres undefined): the TGI is more than 100 µM.

As for `CO/N=C(\COc1ccc2c(c1)[nH]c1ccccc12)c1ccc(F)cc1`, the GI50 is 29.4 µM and the TGI was more than 100 µM.

For `CC(=O)/C=C/c1cn(C(=O)OC(C)(C)C)c2ccc(Br)cc12`, the GI50 is 15.4 µM and the TGI came out at 30.6 µM.

Compound `COc1cc(C(=O)C/C(CCC(=O)Nc2ccccc2[N+](=O)[O-])=N\NC(N)=O)ccc1O` came in with a TGI of more than 100 µM.

With `COc1cccc(OC)c1C(=O)OCc1ccccc1`, the TGI was more than 100 µM.

With `Nc1nc(OCc2ccccc2)c2[nH]cnc2n1`, the GI50 was 24.3 µM and 12 µM; the TGI was 95.7 µM and 400 µM and 299 µM.

As to `O=C1C(Cl)=C(Nc2ccc(S(=O)(=O)O)cc2)C(=O)c2ccccc21`, the TGI was more than 100 µM.

Take `Cc1ccc(-c2nnc(-c3nn(-c4ccccc4)c4nc5ccccc5nc34)o2)cc1`: the TGI was more than 100 µM.
